Test results published in PubChem BioAssay AID485313 (National Center for Advancing Translational Sciences (NCATS), 2010).
Hit rate of the full screen: of about 320,000 compounds, about 7,600 (2.4%) were called active. Inconclusive results, whose numbers are uncertain, are shown with a selection of clear calls. The call rests on the fitted dose curve; in most records, active means well fitted activation curve with a large enough effect; inconclusive means small, poorly fitted or top-dose-only effect; inactive means no such curve, though single readings can be large or run the other way. No potency is given beside an inconclusive call; the fits are too rough.

Experiment: qHTS Assay for NPC1 Promoter Activators; further: nearly all actives have a fitted effect of over 60% in size;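 on activation: reporter is driven by a mutant NPC1 promoter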
Settings: Huh7 NPC1 promoter luciferase reporter, 24 h; series mostly up to 9.22 µM
How it was run: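 Quantitative HTS used a cell-based reporter: Huh7 cells stably bearing the NPC1 promoter upstream of luciferase were treated with compounds for 24 h, and promoter activation was read as luminescence.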
Potency means the concentration at half of the fitted maximal effect; tags describe the fitted curve by direction and shape.

| Structure (SMILES) | Potency |
| --- | --- |
| CCCCc1nnc(NC(=O)c2oc3ccccc3c2C)s1 | inconclusive [activator, single point] |
| Cc1cc(C)c(NN=c2c(=O)c3ccccc3c2=O)c(C)c1 | active: 2820 nM |
| Cc1ccc2nc(-c3ccncc3)[nH]c2c1 | active: 2240 nM |
| NS(=O)(=O)c1ccc(NC(=O)Nc2ccc3c(c2)OCO3)cc1 | inconclusive [activator, single point] |
| COc1ccc(Cl)cc1C(=O)O/N=C(\N)c1ccccn1 | active: 3980 nM |
| Cc1cccc(NC(=O)NCc2ccc3[nH]c(C)cc3c2)c1 | inconclusive [activator, single point] |
| CCCCC(=O)Nc1nnc(CCc2ccccc2)s1 | inactive |
| CC1CCc2cc(F)ccc2N1C(=O)C12CCC(C)(C(=O)O1)C2(C)C (stereo unspecified) | inactive |
| Cn1c(SCc2ccc(C#N)cc2Cl)nc2ccccc21 | active: 2240 nM |
| CCOC(=O)CSc1ccc(-c2nc3cc(C)c(C)cc3[nH]2)cn1 | inconclusive [activator, single point] |
| Cc1cccc2c1cnn2C(=O)Nc1ccccc1Cl | inconclusive [activator, full curve] |
| C=CCc1ccc(OCc2ccc(C(=O)OC)o2)c(OC)c1 | inconclusive [activator, full curve] |
| CCCOc1ccc(C(=O)Nc2ccc3c(c2)OCO3)cc1 | active: 1000 nM |
| COc1cc(CN2CCN(Cc3ccc([N+](=O)[O-])cc3)CC2)c([N+](=O)[O-])cc1OC | inactive |
| Cc1ccc(N2NC3(CCN(C(N)=O)CC3)NC2=O)cc1 | inactive |
| N#Cc1cc(C#N)c(N2CCN(c3ccccn3)CC2)nc1N | inconclusive [activator, partial curve] |
| COc1ccc(/C=N/Nc2nc(Nc3ccccc3)nc(N3CCCCC3)n2)cc1OC | inconclusive [activator, partial curve] |
| O=[N+]([O-])c1ccccc1/C=C/CN1CCN(Cc2ccc3c(c2)OCO3)CC1 | inactive |
| CC(C)C(=O)Nc1cccc(NC(=O)c2cc3ccccc3o2)c1 | inconclusive [activator, single point] |
| O=C(CNC(=O)c1ccco1)Nc1ccc(Cl)cc1 | inconclusive [activator, single point] |
| O=C(NNc1nc2ccc(F)cc2s1)c1cccc(F)c1 | inactive |
| CCC(Sc1ncnc2c1nnn2-c1ccc(F)cc1)C(=O)OC (stereo unspecified) | inconclusive [activator, partial curve] |
| O=C(Nc1cccc(Cl)c1)N1CCc2ccccc2C1 | active: 2820 nM |
| CN(C)c1ccc(/C=N/NC(=O)CNC(=O)/C=C/c2ccccc2)cc1 | inconclusive [activator, partial curve] |
| COc1cc(SC)ccc1C(=O)Nc1cc(C)ccn1 | active: 3160 nM |
| O=C(Nc1ccccc1)c1cc2n(n1)C(C(F)(F)F)CC(C1CC1)N2 (stereo unspecified) | active: 2820 nM |

| Structure (SMILES) | Potency |
| --- | --- |
| Cc1ccc(S(=O)(=O)N2CCc3c2cc([N+](=O)[O-])cc3[N+](=O)[O-])cc1 | inactive |
| CC(=O)Nc1ccc(NC(=O)/C(Cl)=C/c2ccccc2)cc1 | inactive |
| COc1ccc(N(C)C(=O)c2cn(CC(C)C)c(=O)c3cc(OC)c(OC)cc23)c(OC)c1 | inactive |
| O=C(O)c1ccccc1NC(c1ccccc1)c1ccc(Cl)cc1 (stereo unspecified) | inactive |
| COc1ccc(-c2nc3ccc([N+](=O)[O-])cc3o2)cc1 | active: 1580 nM |
| O=C(Nc1ccccc1Cl)c1cc2ccccc2o/c1=N\O | active: 3160 nM |
| O=C(Nc1nc2ccccc2[nH]1)C1CCCO1 (stereo unspecified) | inconclusive [activator, partial curve] |
| CCOC(=O)C1(Cc2cccc(OC)c2)CCN(C2CCOCC2)CC1 | inconclusive [activator, single point] |
| O=C(N=C1SCC(=O)N1c1ccccc1Cl)c1ccco1 | inconclusive [activator, partial curve] |
| COC(=O)N/N=C/c1cn(CCCOc2ccc(C)cc2)c2ccccc12 | inconclusive [activator, full curve] |
| C/C(=N\NC(=O)c1ccccc1)c1cccc(Br)c1 | inconclusive [activator, partial curve] |
| CCc1nc(-c2ccc(-c3ccc(OC)cc3)nc2OC)no1 | inconclusive [activator, partial curve] |
| Cc1ccc(NC(=O)c2noc3c2CCCCC3)cc1 | active: 562 nM |
| NNc1nc(-c2ccccc2Cl)nc2sc3c(c12)CCCC3 | inconclusive [activator, partial curve] |
| Cc1ccc(NC(=O)c2ccc(Cl)cc2Cl)cc1O | inconclusive [activator, single point] |
| O=c1c2ccccc2nnn1CSc1nnc(-c2ccc3c(c2)OCO3)o1 | inconclusive [activator, partial curve] |
| Cc1c(NS(C)(=O)=O)cccc1-c1nc2cccnc2s1 | inconclusive [activator, single point] |
| O=c1cc(-c2ccccc2)nc(/C=C/c2ccccc2)[nH]1 | inactive |
| O=C(Nc1cccnc1)c1cnn2cccnc12 | inactive |
| COc1ccc(OCCSc2ncn[nH]2)cc1 | inconclusive [activator, partial curve] |
| Cc1ccc(C(=O)Nc2cccc(C(=O)O)c2)cc1 | inconclusive [activator, partial curve, poor fit] |
| O=[N+]([O-])c1ccccc1N/N=C\c1ccccc1F | inconclusive [activator, single point] |
| CCOC(=O)c1c(C)[nH]c(C(=O)CN2C(=O)NC3(CCCC3)C2=O)c1C | inconclusive [activator, single point] |
| O=C(Nc1ccc(N2CCCC2)cc1)c1cccc(Cl)c1Cl | inconclusive [activator, single point] |
| CCOC1=C/C(=C/c2c(N)n3nc(CC(=O)N4CCCC4)sc3nc2=O)C=CC1=O | inactive |
